Test results: the supplement of paper PMC12217912
This is one part of the list. The full chains were built here from the parent and the listed change. Values near 0.05 are background.

B1: TEV protease; numbered along this chain (parent)
chain: MGESLFKGPRDYNPISSSICHLTNESDGHTTSLYGIGFGPFIITNKHLFRRNNGTLVVQSLHGVFKVKDTTTLQQHLVDGRDMIIIRMPKDFPPFPQKLKFREPQREERICLVTTNFQTKSMSSMVSDTSCTFPSGDGIFWKHWIQTKDGQCGSPLVSTRDGFIVGIHSASNFTNTNNYFTSVPKNFMELLTNQEAQQWVSGWRLNADSVLWGGHKVFMVKPEEPFQPVKEATQL

Variants of: B1
Test: raw area under fraction-flipped curve 0-4 h after induction (AUC4h, not background-subtracted), DNA-recorder readout of cleavage of the substrate (dimensionless); higher = more cleavage of the substrate by the protease variant
Settings: temperature: 34 °C; time window: 0-4 h after rhamnose induction
Procedure: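 In vivo DNA recorder in E. coli TOP10(DE3) ΔrhaA at 34 °C. Each TEVp single-site mutant (parent TEVp 0) is paired with a single-site variant of the 7-mer TEVs (canonical ENLYFQ|S). The substrate sits between flexible linkers in a Bxb1-sfGFP-TEVs-SsrA fusion, so cleavage stabilises Bxb1 and speeds flipping of a recombination array, read by NGS. The value is the raw area under the fraction-flipped curve over 0-4 h after rhamnose induction (AUC4h), with ≥20 reads per time point. It is not background-subtracted; inactive controls average about 0.047.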
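Also: Bxb1 expression induced with 0.2% (w/v) L-rhamnose at OD600 near 0.5, cultures sampled hourly, flipped fraction per protease–substrate barcode pair counted by paired-end Illumina sequencing.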

Variant | area with substrate ENLYDQS | area with substrate ENLYHQS | area with substrate ENLYIQS | area with substrate ENLYLQS | area with substrate ENLYMQS | area with substrate ENLYNQS | area with substrate ENLYPQS | area with substrate ENLYVQS | area with substrate ENLYYQS | area with substrate ENLYEQS | area with substrate ENLYKQS | area with substrate ENLYRQS | area with substrate ENLYSQS | area with substrate ENLYGQS | area with substrate ENLYWQS | area with substrate ENLYTQS | area with substrate ENLYQQS
MGESLFKGPRDYNPISSSICHLTNESDGHTTSLYGIGFGPFIITNKHLFRRNNGTLVVQSLHGVFKVKDTTTLQQHLVDGRDMIIIRMPKDFPPFPQKLKFREPQREERICLVTTNFQTKSMSSMVSDTSCTFPSGDGIFWKHWIQTKDGQCVSPLVSTRDGFIVGIHSASNFTNTNNYFTSVPKNFMELLTNQEAQQWVSGWRLNADSVLWGGHKVFMVKPEEPFQPVKEATQL [G153V] | 0.0429 | 0.0596 | 0.146 | 0.0466 | 0.0679 | 0.0538 | 0.0592 | 0.0533 | 0.0414 | – | – | – | – | – | – | – | –
MGESLFKGPRDYNPISSSICHLTNESDGHTTSLYGIGFGPFIITNKHLFRRNNGTLVVQSLHGVFKVKDTTTLQQHLVDGRDMIIIRMPKDFPPFPQKLKFREPQREERICLVTTNFQTKSMSSMVSDTSCTFPSGDGIFSKHWIQTKDGQCGSPLVSTRDGFIVGIHSASNFTNTNNYFTSVPKNFMELLTNQEAQQWVSGWRLNADSVLWGGHKVFMVKPEEPFQPVKEATQL [W141S] | 0.0575 | 0.0614 | 0.0583 | – | 0.0721 | 0.0509 | 0.056 | 0.0845 | 0.052 | 0.058 | 0.0511 | 0.0602 | 0.0566 | – | – | – | –
MGESLFKGPRDYNPISSSICHLTNESDGHTTSLYGIGFGPFIITNKHLFRRNNGTLVVQSLHGVFKVKDTTTLQQHLVDGRDMIIIRMPKDFPPFPQKLKFREPQREERICLVTTNFQTKSMSSMVSDTSCTFPSGDGIFWKHWIQTKDGQCGSPLVSTRDGFIVGIHSASNFTNTNNYFTSVPKNFMELLKNQEAQQWVSGWRLNADSVLWGGHKVFMVKPEEPFQPVKEATQL [T192K] | 0.0575 | 0.0658 | – | 0.0684 | 0.0652 | 0.0776 | – | 0.0726 | 0.0584 | 0.0658 | 0.0734 | – | – | 0.05 | 0.0728 | – | –
MGESLFKGPRDYNPISSSICHLTNESDGHTTSLYGIGFGPFIITNKHLFRRNNGTLVVQSLHGVFKVKDTTTLQQHLVDGRDMIIIRMPKDFPPFPQKLKFIEPQREERICLVTTNFQTKSMSSMVSDTSCTFPSGDGIFWKHWIQTKDGQCGSPLVSTRDGFIVGIHSASNFTNTNNYFTSVPKNFMELLTNQEAQQWVSGWRLNADSVLWGGHKVFMVKPEEPFQPVKEATQL [R102I] | 0.0354 | 0.0556 | 0.0607 | – | 0.0618 | 0.0492 | 0.0442 | 0.0676 | 0.0539 | 0.0412 | 0.0593 | – | 0.0703 | 0.0399 | 0.0457 | 0.0319 | –
MGESLFKGPRDYNPISSSICHLTNESDGHTTSLYGIGFGPFIITNKHLFRRNNGTLVVQSLHGVFKVKDTTTLQQHLVDGRDMIIIRMPKDFPPFPQKLKFREPQREERICLVTGNFQTKSMSSMVSDTSCTFPSGDGIFWKHWIQTKDGQCGSPLVSTRDGFIVGIHSASNFTNTNNYFTSVPKNFMELLTNQEAQQWVSGWRLNADSVLWGGHKVFMVKPEEPFQPVKEATQL [T115G] | – | 0.0823 | – | – | – | 0.0719 | 0.0646 | – | – | 0.0657 | 0.0531 | – | – | – | – | – | –
MGESLFKGPRDYNPISSSICHLTNESDGHTTSLYGIGFGPFIITNKHLFRRNNGTLVVQSLHGVFKVKDTTTLQQHLVDGRDMIIIRMPKDFPPFPQKLKFREPQREERICLVTTNFQTKSMSSMVSDTSCTFPSGDGIFWKHWIQTKDGQCGSPLVSTRDGFIVGIHSASNFTNTNNYFTSVPKNFMELLTNQEAQQWVSGWRLNADSVLWGGAKVFMVKPEEPFQPVKEATQL [H215A] | 0.0728 | – | – | – | 0.0573 | – | – | 0.0633 | – | – | – | 0.0647 | 0.0502 | – | 0.0586 | 0.0691 | 0.0603
MGESLFKGPRDYNPISSSICHLTNESDGHTTSLYGIGFGPFIITNKHLFRRNNGTLVVQSLHGVFKVKDTTTLQQHLVDGRDMIIIRMPKDFPPFPQKLKFREPQREERICLVTTNFQTKSMSSMVSDTSCTFPSGDGIFWKHWIQTKDGQCGSPLVSTRDGFIVGEHSASNFTNTNNYFTSVPKNFMELLTNQEAQQWVSGWRLNADSVLWGGHKVFMVKPEEPFQPVKEATQL [I167E] | 0.0517 | – | – | – | 0.0543 | – | 0.0618 | – | 0.0634 | 0.0376 | 0.0472 | – | 0.0575 | – | – | – | –
MGESLFKGPRDYNPISSSICHLTNESDGHTTSLYGIGFGPFIITNKHLFRRNNGTLVVQSLHGVFKVKDTTTLQQHLVDGRDMIIIRMPKDFPPFPQKLKFREPQREERICLVTTNFQTKSMSSMVSDTSCTFPSGDGIFWKHWIQTKDGQCGSPLVSTRDGFIVGIHSASNFTNTNNYFTSVPKNFMELLTNGEAQQWVSGWRLNADSVLWGGHKVFMVKPEEPFQPVKEATQL [Q194G] | 0.0514 | 0.0677 | 0.123 | – | 0.0799 | – | 0.0731 | 0.0947 | – | 0.0732 | 0.0553 | 0.0718 | 0.0758 | 0.0452 | 0.0682 | – | 0.0756
MGESLFKGPRDYNPISSSICHLTNESDGHTTSLYGIGFGPFIITNKHLFRRNNGTLVVQSLHGVFKVKDTTTLQQHLVDGRDMIIIRMPKDFPPFPQKLKFREPQREERICLVTTNFQTKSMSSMVSDTSCDFPSGDGIFWKHWIQTKDGQCGSPLVSTRDGFIVGIHSASNFTNTNNYFTSVPKNFMELLTNQEAQQWVSGWRLNADSVLWGGHKVFMVKPEEPFQPVKEATQL [T132D] | 0.054 | 0.0643 | 0.0547 | 0.0558 | 0.0461 | 0.0543 | 0.0574 | 0.0572 | 0.0537 | 0.0526 | 0.0522 | 0.046 | 0.0623 | 0.0535 | 0.0516 | – | 0.0525
MGESLFKGPRDYNPISSSICHLTNESDGHTTSLYGIGFGPFIITNKHLFRRNNGTLVVQSLHGDFKVKDTTTLQQHLVDGRDMIIIRMPKDFPPFPQKLKFREPQREERICLVTTNFQTKSMSSMVSDTSCTFPSGDGIFWKHWIQTKDGQCGSPLVSTRDGFIVGIHSASNFTNTNNYFTSVPKNFMELLTNQEAQQWVSGWRLNADSVLWGGHKVFMVKPEEPFQPVKEATQL [V64D] | 0.0678 | 0.0765 | 0.119 | 0.0331 | 0.11 | – | – | 0.107 | 0.0572 | – | 0.0552 | 0.0533 | – | – | – | – | –
